# The campaign covered roughly 220,000 compounds. About 16,000 (7.3%) were called active. Inconclusive means that the source gave no clear call. Such entries were picked first, then a sample of the others. Calls follow the shape of the dose curve; as a rule, active = well fitted inhibition curve with a large enough effect (not every such curve was filed as active); inconclusive = small, poorly fitted or top-dose-only effect, or another doubt; inactive = no such curve, though single readings can be large or run the other way. No potency is given beside an inconclusive call; the fits are too rough.
# Target: Aldehyde dehydrogenase 1A1 (Homo sapiens) (UniProt P00352)
# Experiment: qHTS Assay for Inhibitors of Aldehyde Dehydrogenase 1 (ALDH1A1)
# Conditions: Purified ALDH1A1, NADH fluorescence, propionaldehyde substrate; series mostly up to 75.3 µM
# Potency is read from the fitted curve at half-maximal effect; tags tell the direction and shape of the fitted curve.
# UniProt P00352, sequence (P00352 whole entry, looked up): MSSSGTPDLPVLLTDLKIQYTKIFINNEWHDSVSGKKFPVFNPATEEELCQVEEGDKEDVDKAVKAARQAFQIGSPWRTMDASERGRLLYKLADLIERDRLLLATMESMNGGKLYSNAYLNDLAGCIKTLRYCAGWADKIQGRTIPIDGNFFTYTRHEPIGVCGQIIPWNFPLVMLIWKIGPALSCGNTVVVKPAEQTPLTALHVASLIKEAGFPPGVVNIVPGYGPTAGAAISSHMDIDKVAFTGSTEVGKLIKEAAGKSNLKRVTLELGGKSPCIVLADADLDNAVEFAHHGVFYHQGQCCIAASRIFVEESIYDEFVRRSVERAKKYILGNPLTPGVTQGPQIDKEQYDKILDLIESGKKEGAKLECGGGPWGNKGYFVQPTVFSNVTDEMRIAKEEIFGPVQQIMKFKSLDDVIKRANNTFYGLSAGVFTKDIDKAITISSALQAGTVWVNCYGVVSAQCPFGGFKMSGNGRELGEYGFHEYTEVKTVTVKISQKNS
row,Structure (SMILES),Potency
1,Cc1cccc2cc(-c3ccccc3)c(-c3ccccc3)c[n+]12,"inconclusive [inhibitor, partial curve]"
2,N#Cc1c(NC(=S)NC(=O)c2ccccc2)sc2c1CCN(CCc1ccccc1)C2,active: 17.8 µM
3,COc1ccc(-n2c(COc3ccc(C)cc3)nnc2SCc2ccc(C#N)cc2)cc1,"inconclusive [inhibitor, single point]"
4,CCOc1ccc(NCc2ccccc2OCc2cccc(F)c2)cc1,"inconclusive [inhibitor, single point]"
5,Brc1ccc(-c2cn3cccnc3n2)cc1,"inconclusive [inhibitor, partial curve]"
6,Oc1c(CN2CCOCC2)ccc2ccccc12,"inconclusive [inhibitor, partial curve]"
7,Cc1onc(-c2ccccc2)c1C(=O)N/N=C/c1cc2c(cc1Cl)OCO2,"inconclusive [inhibitor, single point]"
8,N#CCC(=O)N/N=C/c1ccc(SCC(=O)Nc2ccccc2)o1,"inconclusive [inhibitor, single point]"
9,COc1ccc(-c2nc3c(c4c2C[C@H](c2ccccc2)OC4)CN(S(=O)(=O)c2ccc(NC(C)=O)cc2)CC3)c(C)c1,active: 0.447 µM
10,COc1ccc(Nc2ccc(N3C(=O)CCCC3=O)cc2[N+](=O)[O-])cc1OC,inactive
11,COc1ccc(C2Nc3ccccc3C(=O)N2NC(C)=O)cc1OC (configuration not stated),"inconclusive [inhibitor, partial curve]"
12,CCOc1c2ccc(C(=O)NCc3ccc4c(c3)OCO4)cc2nn1C,"inconclusive [inhibitor, single point]"
13,CC(=O)C1=C(C)NC(SCC(=O)c2ccccc2)=C(C#N)C1CC(C)C (configuration not stated),active: 7.08 µM
14,CC(=O)Nc1ccc(S(=O)(=O)N(CCCN2CCOCC2)Cc2cccs2)cc1,"inconclusive [inhibitor, single point]"
15,Cc1sc(NC(=O)c2cccs2)c(C(N)=O)c1C,active: 11.2 µM
16,Cc1cc(C)c(C)c(OCCCn2ccnc2)c1,"inconclusive [inhibitor, single point]"
17,COc1cc2ccccc2c2c1CCCC2=O,"inconclusive [inhibitor, single point]"
18,NCCC[C@@H](CC(=O)N[C@@H]1CCNC[C@H]1C(=O)N[C@H](CC(=O)N[C@@H](CCC(=O)O)CC(=O)O)Cc1c[nH]c2ccccc12)NC(=O)C[C@H](CO)NC(=O)[C@@H]1CNCC[C@H]1N,"inconclusive [inhibitor, single point]"
19,Cc1ccccc1OCc1nnc(SCC(=O)Nc2ccc3c(c2)oc2ccccc23)n1C,active: 14.1 µM
20,COCCCNC(=O)Cn1cc(C(C)=O)c2ccccc21,inactive
21,CNC(=S)Nc1sc2c(c1C(=O)OC)CCC2,"inconclusive [inhibitor, single point]"
22,CC(Oc1ccc(Cl)cc1)C(=O)NNC(=S)NC(=O)c1ccco1 (configuration not stated),"inconclusive [inhibitor, single point]"
23,CC(=O)c1c(C)nc(-c2ccc(Cl)cc2)nc1N=CN(C)C,"inconclusive [inhibitor, single point]"
24,COc1ccc(CNC(=O)C(=O)NCC2OCCN2S(=O)(=O)c2cccs2)cc1 (configuration not stated),"inconclusive [inhibitor, partial curve]"

row,Structure (SMILES),Potency
1,c1ccc(-c2cc3c(nn2)CCc2nonc2-3)cc1,"inconclusive [inhibitor, partial curve]"
2,Cc1ccc2c(Cl)cc(Cl)c(OCC(=O)N3CCCC3)c2n1,"inconclusive [inhibitor, single point]"
3,CCOC(=O)/C(C(=O)Nc1ccccc1Cl)=C1/NC(C)(C)Cc2ccccc21,active: 14.1 µM
4,CCOC(=O)/C(N=Nc1sc(C(=O)OC)c(C)c1C(=O)OCC)=C(\O)CCl,"inconclusive [inhibitor, single point]"
5,OCCC1CN(Cc2ccccc2-c2ccco2)CCN1Cc1ccsc1 (configuration not stated),"inconclusive [inhibitor, single point]"
6,Cc1cccc(-n2nc(C)c3c(C(=O)O)cc(-c4cccs4)nc32)c1,"inconclusive [inhibitor, partial curve]"
7,O=C(c1ccc(F)cc1)C1CCN(S(=O)(=O)c2ccccc2)CC1,"inconclusive [inhibitor, single point]"
8,CC(=O)c1cccc(NC(=O)N2CCCC2C(=O)Nc2ccc3c(c2)OCCO3)c1 (configuration not stated),inactive
9,O=c1c2ccccc2nc2n1CCC2,"inconclusive [inhibitor, single point]"
10,COc1ccccc1CC(=O)NCCc1ccc(S(N)(=O)=O)cc1,"inconclusive [inhibitor, single point]"
11,O=C(O)/C=C/C(=O)Nc1ccccc1SC(F)(F)F,active: 11.2 µM
12,Cn1cccc1/C=C(/C#N)C(N)=S,inactive
13,COc1ccc2cc(C(=O)C3CCCN(C(=O)c4cc(=O)n(C)c(=O)n4C)C3)ccc2c1 (configuration not stated),"inconclusive [inhibitor, partial curve]"
14,C[N+]1(CCCCC[N+]2(C)CCCC2)CCCC1,inactive
15,COc1ccccc1Cn1c(SCC(N)=O)nc2c(oc3ccccc32)c1=O,active: 1.26 µM
16,O=C(Nc1cnn(C23CC4CC(CC(C4)C2)C3)c1)c1cnn2cccnc12,"inconclusive [inhibitor, single point]"
17,COc1ccc(/C=C2\SC(=S)N(C(Cc3ccccc3)C(=O)O)C2=O)cc1 (configuration not stated),"inconclusive [inhibitor, single point]"
18,CC(C)C(=O)NC(=S)Nc1ccccn1,"inconclusive [inhibitor, partial curve]"
19,CCOc1ccccc1NC(=O)Nc1cccc(C(C)=O)c1,"inconclusive [inhibitor, single point]"
20,O=C(Nc1ccc(F)cc1F)N1CCCN(c2ccc([N+](=O)[O-])cn2)CC1,"inconclusive [inhibitor, single point]"
21,O=C(NCc1ccccc1Cl)C1CCN(S(=O)(=O)N2CCOCC2)CC1,inactive
22,O=c1cc(/C=C/c2ccccc2)oc2c1ccc1ccccc12,"inconclusive [inhibitor, single point]"
23,COC(=O)c1ccc(C(=O)OC)c(N)c1,"inconclusive [inhibitor, partial curve]"
24,Cc1ncc(CC(=O)n2cc(C(=O)c3cc(F)ccc3O)cn2)s1,active: 7.94 µM

row,Structure (SMILES),Potency
1,CCn1c(SCC(=O)OC2CCCCC2)nc2ccccc2c1=O,"inconclusive [inhibitor, single point]"
2,COc1ccc2c(=O)c(-c3ccccc3)c(C)oc2c1,"inconclusive [inhibitor, partial curve]"
3,O=C(NNc1ccc(Cl)cc1)c1cccs1,"inconclusive [inhibitor, single point]"
4,CCC(Sc1nnnn1-c1ccccc1)C(=O)Nc1nc2ccccc2s1 (configuration not stated),"inconclusive [inhibitor, single point]"
5,CCc1ccc2[nH]c3nc(C)cc(C)c3c(=O)c2c1,"inconclusive [inhibitor, partial curve]"
6,COc1ccccc1-c1noc(-c2ccccc2)n1,"inconclusive [inhibitor, single point]"
7,CC1(C)C2CC=C(/C=N/NC(=S)Nc3cccnc3)C1C2 (configuration not stated),inactive
8,Nc1c(C(=O)O)cnc2c(-c3ccc(Cl)cc3)cnn12,"inconclusive [inhibitor, single point]"
9,CCc1cc2c(=O)c(-c3nc4ccccc4n3C)c(C)oc2c(CN(CC)CC)c1O,"inconclusive [inhibitor, single point]"
10,COc1ccccc1NC1SC(=O)N(c2ccccc2)C1=O (configuration not stated),active: 5.01 µM
11,COc1cccc2[nH]c3c(=O)n(CCN(C)C)cnc3c12,"inconclusive [inhibitor, partial curve]"
12,CC(C)COC(=O)CNc1n[nH]c(=S)[nH]c1=O,inactive
13,O=C1C(Nc2ccccc2)=C2CCCC=C2N1c1ccccc1,active: 12.6 µM
14,CCOC(=O)C1CCN(c2ncnc3c2cnn3-c2ccccc2)CC1,"inconclusive [inhibitor, partial curve]"
15,CCOC(=O)c1c(NC(=O)Nc2ccc(C)cc2)sc2c1CCN(C)C2,"inconclusive [inhibitor, single point]"
16,Cn1cccc1/C=N/NC(=O)c1ccco1,inactive
17,CCCN(CC(=O)Nc1cc(Cl)cc(Cl)c1)CC(=O)Nc1ccc(F)c(F)c1F,"inconclusive [inhibitor, single point]"
18,Cc1nc(SCC(=O)Nc2ccc(N3CCOCC3)cc2)nc(C)c1C,"inconclusive [inhibitor, single point]"
19,O=C(COc1ccc2ccccc2c1)N1CCN(C(=O)c2cccnc2)CC1,inactive
20,Cn1c(=O)c(C(=O)Nc2ncccn2)c(O)c2ccccc21,"inconclusive [inhibitor, single point]"
21,COc1cccc(-c2cncnc2NCc2ccc(OC)cc2OC)c1,"inconclusive [inhibitor, single point]"
22,O=C1OCCC1Sc1nnc(-c2ccc(Cl)cc2Cl)o1 (configuration not stated),inactive
23,Cc1ccnc(NC(=O)c2ccoc2C)c1,inactive
24,CCNc1ncc2nc(-c3cccs3)c(=O)n(Cc3ccc(F)cc3)c2n1,"inconclusive [inhibitor, single point]"
